Laboratory results taken from PubChem BioAssay AID1508623 (National Center for Advancing Translational Sciences (NCATS), 2021).
About 450 (0.94%) of roughly 48,000 compounds were called active. Inconclusive results (about 19%) are left out. Calls come from the whole dose curve; as a rule, active = well fitted inhibition curve with a large enough effect; inconclusive = small, poorly fitted or top-dose-only effect; inactive = no such curve, though single readings can be large or run the other way. The list shows a part of the results.

Assay: Primary qHTS for Identification of Small Molecule Inhibitors of Huntingtin Promoter Activity; note: nearly all actives have a fitted effect of over 50% in size
Details: HEK293 HTT promoter firefly luciferase reporter (activity 0% = vehicle and -100% = no light), 24 h; series mostly up to 57.5 µM; activity change, negative = inhibition: at the top concentration
Outline: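 Luminescence was read after Dual-Glo reagent and a 10 min room-temperature incubation. Values were normalized to vehicle (0% activity) and zero RLU (-100% activity). Reporter HEK293 cells had been exposed to compounds (up to 57.5 uM final) for 24 h.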

SMILES | activity change, negative = inhibition
CCOC(=O)c1c(C)oc2ncnc(N3CCN(c4ccccc4OC)CC3)c12 | inactive: -24.2%
O=C(COc1ccc2oc3c(c2c1)CCCC3)Nc1ccc(Br)cc1 | inactive: -14.1%
COc1cc(OC)cc(C(=O)Nc2ccccc2-c2nc3ccccc3s2)c1 | inactive: 17.3%
COc1ccc2[nH]c(C)c(CCNS(=O)(=O)c3cc(F)ccc3OC)c2c1 | inactive: 8.69%
COc1ccc(CCNC(=O)C2(c3cccs3)CCOCC2)cc1OC | inactive: 0.326%
COc1ccc(-c2nc3c4ccccc4n(CC(=O)Nc4cc(F)ccc4F)c(=O)n3n2)cc1 | inactive: 29.3%
CCOc1ccc(OC(=O)c2cn(-c3ccc(C)cc3)c(=O)c3ccccc23)cc1 | inactive: -17.9%
COc1ccc(-c2cc(C(F)(F)F)n3nc(C(=O)Nc4cc(Cl)cc(Cl)c4)cc3n2)cc1 | inactive: -14.5% [at 11.5 µM]
CCCCC(=O)Nc1ccccc1C(=O)OCc1cc(=O)n2nc(C3CCCCC3)sc2n1 | inactive: -33.7%
COc1ccc(N2CCN(S(=O)(=O)CCNC(=O)Cc3ccc(Cl)cc3)CC2)cc1 | inactive: -13.4%
CCn1cc(S(=O)(=O)c2cc(C)cc(C)c2)c(=O)c2cc(F)c(N3CCCC3)cc21 | inactive: -14.1%
CCOc1ccc(CCNC(=O)c2nnc(Cc3cc(OC)c(OC)c(OC)c3)o2)cc1OCC | inactive: -19.7%
Cc1ccccc1Cn1c(=O)n(Cc2ccc(Cl)cc2)c(=O)c2cccnc21 | inactive: -9.04%
COc1ccc(OC)c(NC(=O)CSC2=Nc3ccccc3C3=NC(CC(=O)NCc4ccc5c(c4)OCO5)C(=O)N23)c1 (configuration not stated) | inactive: 0%
COc1cc(Cl)c(C)cc1NC(=O)c1sc2nc3n(c(=O)c2c1C)CCCCC3 | inactive: -1.67%
CCOC(=O)c1c(NC(=O)c2nc(SC(C)C)ncc2Cl)sc2c1CCCC2 | inactive: -11.4%
Cn1c(SCc2ccc(C(F)(F)F)cc2)nc2c([nH]c3ccccc32)c1=O | inactive: 0.288%
O=c1cc(N2CCN(c3ccc(F)cc3)CC2)[nH]c(=O)n1-c1ccc(Br)cc1 | inactive: -10.6%
COc1cc(NC(=O)N2CCC(CN3CCCC3)CC2)cc(OC)c1OC | inactive: -5.12%
COc1cc(C(=O)NCC(c2cccnc2)N2CCc3ccccc32)cc(OC)c1OC (configuration not stated) | inactive: -20.2%
CN(C)c1ccc(C(CNS(=O)(=O)c2ccccc2)N2CCc3ccccc32)cc1 (configuration not stated) | inactive: 20.6%
CC(=O)c1c(C)oc2c(Cl)cc(NS(=O)(=O)c3ccc(Cl)cc3)cc12 | inactive: -7.43%
CCN(CC)C(=O)Cn1c(=O)n(Cc2ccc(C(=O)NCc3ccccc3Cl)cc2)c(=O)c2ccccc21 | inactive: -9.95%

SMILES | activity change, negative = inhibition
CCOC(=O)c1c(-c2ccc(Br)cc2)csc1NC(=O)c1ccccc1F | inactive: -8.7%
O=C1CN(C(=O)c2ccccc2C(F)(F)F)C(c2ccccc2)c2cc(F)ccc2N1 (configuration not stated) | inactive: -31.1%
COc1cc2c(cc1OC)C(COc1ccc3c(C)cc(=O)oc3c1)N(C(=O)c1ccc(Cl)cc1)CC2 (configuration not stated) | inactive: -17.8%
O=C1[C@@H]2CSC(c3ccc(C(F)(F)F)cc3)N2C(=O)N1c1ccccc1 (some centres not stated) | inactive: -20.9%
CCCNc1c(NC(=O)c2ccc(OCCC)cc2)c(=O)oc2ccccc12 | inactive: -20.1%
COc1ccc2c(c1OC)C(=O)O[C@@H]2[C@H]1c2c(cc3c(c2OC)OCO3)CCN1C | inactive: -14.2%
CCCC(=O)N1CCN(c2nc3c(OC)ccc(C)c3s2)CC1 | inactive: -18.8%
CCOc1ccc(-n2c(SCC(=O)N3CCOCC3)nc3c([nH]c4ccccc43)c2=O)cc1 | inactive: -18%
CC(C)(C)OC(=O)N1CCC(c2c(C(=O)N3CCN(C(=O)c4ccco4)CC3)cnn2-c2cccc(F)c2)CC1 | inactive: 1.53%
Cc1ccc(C)c(Nc2nnc(-n3nc(C)cc3C)c3ccccc23)c1 | inactive: -25.5%
O=C(Nc1cccc(F)c1)c1ccc2snnc2c1 | inactive: 8.64%
CCN(c1ccccc1)S(=O)(=O)c1nnc(NC(=O)c2cccs2)s1 | inactive: -23.9%
Cc1ccc(-n2nc(C(=O)N3CCC(C)CC3)c(=O)n(C)c2=O)cc1 | inactive: 4.88%
Cc1ccc(CNC(=O)C(CC(C)C)NS(=O)(=O)c2ccc3c(c2)oc(=O)n3C)cc1 (configuration not stated) | inactive: -3.26%
Cc1ccc(Cc2nc3ccccc3nc2SCC(=O)Nc2ccc3c(c2)OCO3)cc1 | inactive: -26.9%
COc1ccc(CNC(=O)C2CCN(Cc3nc(-c4ccc(Cl)cc4)oc3C)CC2)cc1 | inactive: -4.43%
Cc1ccc(S(=O)(=O)NCCS(=O)(=O)N2CCN(c3ccccc3)CC2)cc1 | inactive: -35.4%
Cc1nc(N2CCOCC2)c2c(C(=O)Nc3cccc(C(F)(F)F)c3)c(C)oc2n1 | inactive: -2.89%
CSc1ccc(CCNC(=O)CCc2c(C)nc3c(c(C)nn3-c3ccccc3)c2C)cc1 | inactive: 19.5%
O=C(NC1CC(=O)N(c2cccc(F)c2)C1)c1ccc(Br)o1 (configuration not stated) | inactive: 5.43%
CC(=O)c1ccc(NC(=O)CCSc2nc(-c3ccco3)cc(C(F)(F)F)n2)cc1 | inactive: -6.55% [at 11.5 µM]
COC(=O)c1c(-c2ccc(Cl)cc2)noc1N1CCN(c2ccc(C)cc2C)CC1 | inactive: -16.4%
CC(C)c1ccc(NC(=O)C2CCCN(S(=O)(=O)c3cccc4cccnc34)C2)cc1 (configuration not stated) | inactive: -20.6%

SMILES | activity change, negative = inhibition
COc1ccc(OC)c(NC(=O)c2noc3c2CCCC3)c1 | inactive: 30.3%
CCOC(=O)Cc1ccc(NC(=O)N2CCOc3ccc(C)cc32)cc1 | inactive: 0.0905%
CCOC(=O)c1cc(S(=O)(=O)N2CCN(c3ccccc3)CC2)[nH]n1 | inactive: -13.6%
CCc1nnc2c3ccccc3nc(Nc3ccc(C(C)=O)cc3)n12 | inactive: -32.6% [at 11.5 µM]
Cc1ccc(OC(C)C(=O)Nc2nonc2-c2ccc(Br)cc2)cc1C (configuration not stated) | inactive: -16%
Cc1ccc2nc(N(Cc3cccnc3)C(=O)COc3ccccc3)sc2c1 | inactive: 7.2%
CCOC(=O)Cn1c(=O)oc2cc(S(=O)(=O)N3CCN(c4cccc(C)c4C)CC3)ccc21 | inactive: -12.2%
Cc1ccc(Nc2c(-c3c[nH]c4ccccc34)nc3cc(C)ccn23)cc1 | inactive: 26.1%
CCOc1ccccc1NC(=O)CSc1nc2c(oc3ccccc32)c(=O)n1-c1ccc(C)c(C)c1 | inactive: -13.1%
COc1ccc(-c2nn3c(=O)cc(CN4CCN(C(=O)c5ccc(C(C)(C)C)cc5)CC4)nc3s2)cc1 | inactive: -26.2%
CCOC(=O)c1c(N)n(-c2ccc(C)c(Cl)c2)c2nc3ccccc3nc12 | inactive: -7.79%
CC1=C(c2ccc(C)c(C)c2)S(=O)(=O)N(Cc2ccc(C(=O)NCc3cccc(C)c3)cc2)C1=O | inactive: -27.7%
O=C(CCC1N=C2c3ccccc3N=C(SCc3ccc(F)cc3)N2C1=O)NCc1cccs1 (configuration not stated) | inactive: 0.9%
Cc1cccc(NC(=O)c2oc3ccccc3c2NC(=O)Cc2coc3c(C)c(C)ccc23)c1 | inactive: -7.91%
CCOC(=O)C1=C(CS(=O)(=O)c2cccc(C(F)(F)F)c2)NC(=O)NC1c1cccc(OC)c1 (configuration not stated) | inactive: -22.4%
COc1ccc(Cl)cc1C(=O)Nc1sc2c(c1C(=O)OC(C)C)CCCC2 | inactive: -14% [at 11.5 µM]
O=C(C1CC1)N1CCc2cc(Br)cc(S(=O)(=O)N3CCN(c4cccc(C(F)(F)F)c4)CC3)c21 | inactive: 6.36%
CCCCOc1ccc(-c2nn(-c3ccccc3)cc2C2NC(=O)NC(C)=C2C(=O)OC)cc1 (configuration not stated) | inactive: -8.52%
CC(=O)N1CCc2cc(Br)cc(S(=O)(=O)N3CCN(c4cccc(C(F)(F)F)c4)CC3)c21 | inactive: -5.05%
COc1ccccc1NC(=O)C1=C(C)Nc2c(C(=O)Nc3ccc(F)cc3)cnn2C1c1cccc([N+](=O)[O-])c1 (configuration not stated) | inactive: -10%
CCCCN(C)c1nc2c(S(=O)(=O)c3ccc(CC)cc3)nnn2c2ccc(Cl)cc12 | inactive: 2.67%
COc1ccc(NC(=O)Cn2c(=O)n(-c3ccc(OC)c(OC)c3)c(=O)c3ccccc32)cc1 | inactive: -18.4%
COc1cc(C(CC(=O)NCc2ccc(F)cc2)N2Cc3ccccc3C2=O)cc(OC)c1OC (configuration not stated) | inactive: -5.61%

SMILES | activity change, negative = inhibition
COc1ccc(C(F)(F)F)cc1NC(=O)c1sc2nc(-c3cccs3)ccc2c1N | inactive: 38.5%
CC(=O)c1ccc(N2CCN(c3ncnc4c3c(-c3ccccc3)cn4-c3cccc(C)c3)CC2)cc1 | inactive: -21.1%
CCOC(=O)c1ccc(NC(=O)c2c(-c3c(F)cccc3Cl)noc2C)cc1 | inactive: -25.7%
CCC(=O)N1CCc2cc(Br)cc(S(=O)(=O)N3CCC(C(=O)NCCCOC(C)C)CC3)c21 | inactive: 13.4%
COC(=O)c1ccccc1NC(=O)c1ccc(COc2ccccc2Cl)o1 | inactive: -9.67%
COc1ccc(C2CC(=O)c3cc(-c4nc(-c5cccc(Cl)c5)cs4)c(=O)[nH]c3C2)cc1OC (configuration not stated) | inactive: -8.42%
O=C(Cn1cc(C(=O)c2ccco2)c2ccccc21)Nc1ccc(Br)cc1 | inactive: -4.18%
CSc1ncc2c(n1)-c1ccccc1N(Cc1ccc(Cl)cc1)S2(=O)=O | inactive: -12%
O=C(CSc1ccccc1)N1CCc2c([nH]c3ccccc23)C1c1ccc(F)cc1 (configuration not stated) | inactive: -28.8%
COc1cccc(C(=O)Nc2cccc(C(=O)OCc3cc(=O)n4nc(C5CC5)sc4n3)c2)c1 | inactive: -3.9%
Nc1c(-c2nc(-c3cccs3)no2)nnn1-c1ccc(Cl)cc1 | inactive: 18.8%
CCC1CCCCN1C(=O)Cn1c(=O)n(CCCCCC(=O)NCc2ccccc2)c(=O)c2sccc21 (configuration not stated) | inactive: -13.9%
CSc1ncc(Cl)c(C(=O)Nc2ccc(NC(C)=O)cc2)n1 | inactive: -4.39%
CCCCNc1nc(Oc2ccc(OCC)nn2)nc(N2CCOCC2)n1 | inactive: 19.2%
COc1cccc(NC(=O)c2ccc3nc(CCc4ccccc4)oc3c2)c1 | inactive: 1.06%
COc1ccc(Cl)cc1NC(=O)c1c(NCc2ccc(C)o2)sc2c1CCCCC2 | inactive: -10.9%
CCCn1c2ccccc2c2cnn(CC(=O)N(C)c3ccc(F)cc3)c(=O)c21 | inactive: -4.53%
COc1cccc(CSc2nc3ccccc3c3nc(CCn4c(C)nc5ccccc54)nn23)c1 | inactive: -24.3%
O=C(NCc1ccc2c(c1)CCN2C(=O)c1ccc(F)cc1)c1cc2ccccc2[nH]1 | inactive: -5.66%
COc1ccccc1CNC(=O)CCC(=O)N1CC2CCCN2c2ccccc21 (configuration not stated) | inactive: -16.8%
c1ccc(CNc2nc3c(-c4ccccc4)nnn3c3ccccc23)cc1 | inactive: 33.7%
COc1cccc(NC(=O)C2CCCN(S(=O)(=O)c3c(C)nn(C)c3C)C2)c1 (configuration not stated) | inactive: -23.8%
O=C(Cc1ccc(Cl)cc1)Nc1ccc2nn(-c3ccc(Cl)cc3)nc2c1 | inactive: 1.35%
